# The supplement of paper PMC8728848
# Some of the results follow.
# What was measured:
# Assay in all cases: glycan array binding signal (z-score within array); higher = stronger binding
# Conditions in all cases: glycan notation: IUPAC condensed, linker removed
# [1] = biological target: Fuc(a1-2)Gal(b1-4)GlcNAc6S
# How it was run: (§1)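 Negative Z-scores can be read as non-binding. The Z-score is calculated within each array and then averaged across arrays of one protein sequence at different concentrations or buffers and across linkers. Arrays, 3228 in all, were curated from the Consortium for Functional Glycomics database and kept only where the protein sequence was available.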
# [2] = biological target: Fuc(a1-2)Gal(b1-4)[Fuc(a1-3)]GalNAc(b1-3)Gal(b1-4)[Fuc(a1-3)]GlcNAc
# How it was run: as §1
# [3] = biological target: Fuc(a1-2)Gal(b1-4)[Fuc(a1-3)]GalNAc(b1-3)Gal(b1-4)[Fuc(a1-3)]GlcNAc(b1-3)Gal(b1-4)[Fuc(a1-3)]GalNAc
# How it was run: as §1
# [4] = biological target: Fuc(a1-2)Gal(b1-4)[Fuc(a1-3)]GlcNAc
# How it was run: as §1
# [5] = biological target: Fuc(a1-2)Gal(b1-4)[Fuc(a1-3)]GlcNAc(b1-2)Man(a1-3)[Fuc(a1-2)Gal(b1-4)[Fuc(a1-3)]GlcNAc(b1-2)Man(a1-6)]Man(b1-4)GlcNAc(b1-4)[Fuc(a1-6)]GlcNAc
# How it was run: as §1
# [6] = biological target: Fuc(a1-2)Gal(b1-4)[Fuc(a1-3)]GlcNAc(b1-2)[Fuc(a1-2)Gal(b1-4)[Fuc(a1-3)]GlcNAc(b1-4)]Man(a1-3)[Fuc(a1-2)Gal(b1-4)[Fuc(a1-3)]GlcNAc(b1-2)Man(a1-6)]Man(b1-4)GlcNAc(b1-4)GlcNAc
# How it was run: as §1
# [7] = biological target: Fuc(a1-2)Gal(b1-4)[Fuc(a1-3)]GlcNAc(b1-3)Gal(b1-4)[Fuc(a1-3)]GlcNAc
# How it was run: as §1
# [8] = biological target: Fuc(a1-2)Gal(b1-4)[Fuc(a1-3)]GlcNAc(b1-3)Gal(b1-4)[Fuc(a1-3)]GlcNAc(b1-3)Gal(b1-4)[Fuc(a1-3)]GlcNAc
# How it was run: as §1
# [9] = biological target: Fuc(a1-2)Gal(b1-4)[Fuc(a1-3)]GlcNAc(b1-3)GalNAc
# How it was run: as §1
# [10] = biological target: Fuc(a1-2)Gal(b1-4)[Fuc(a1-3)]GlcNAc(b1-3)[Neu5Ac(a2-6)Gal(b1-4)GlcNAc(b1-6)]Gal(b1-4)Glc
# How it was run: as §1
# [11] = biological target: Fuc(a1-2)Gal3S(b1-4)GlcNAc
# How it was run: as §1
# [12] = biological target: Fuc(a1-2)Gal6S(b1-3)GlcNAc
# How it was run: as §1
# [13] = biological target: Fuc(a1-2)Gal6S(b1-3)GlcNAc6S
# How it was run: as §1
# [14] = biological target: Fuc(a1-2)Gal6S(b1-4)Glc
# How it was run: as §1
# [15] = biological target: Fuc(a1-2)Gal6S(b1-4)Glc6S
# How it was run: as §1
# [16] = biological target: Fuc(a1-2)GlcNAc
# How it was run: as §1
# [17] = biological target: Fuc(a1-2)[Gal(a1-3)]Gal
# How it was run: as §1
# [18] = biological target: Fuc(a1-2)[Gal(a1-3)]Gal(b1-3)GalNAc
# How it was run: as §1
# [19] = biological target: Fuc(a1-2)[Gal(a1-3)]Gal(b1-3)GalNAc(b1-3)Gal(a1-4)Gal(b1-4)Glc
# How it was run: as §1
# [20] = biological target: Fuc(a1-2)[Gal(a1-3)]Gal(b1-3)GlcNAc
# How it was run: as §1
# [21] = biological target: Fuc(a1-2)[Gal(a1-3)]Gal(b1-3)GlcNAc(b1-2)Man(a1-3)[Fuc(a1-2)[Gal(a1-3)]Gal(b1-3)GlcNAc(b1-2)Man(a1-6)]Man(b1-4)GlcNAc(b1-4)GlcNAc
# How it was run: as §1
# [22] = biological target: Fuc(a1-2)[Gal(a1-3)]Gal(b1-3)GlcNAc(b1-2)Man(a1-3)[Fuc(a1-2)[Gal(a1-3)]Gal(b1-3)GlcNAc(b1-2)Man(a1-6)]Man(b1-4)GlcNAc(b1-4)[Fuc(a1-6)]GlcNAc
# How it was run: as §1
# [23] = biological target: Fuc(a1-2)[Gal(a1-3)]Gal(b1-3)GlcNAc(b1-3)GalNAc
# How it was run: as §1
# [24] = biological target: Fuc(a1-2)[Gal(a1-3)]Gal(b1-3)GlcNAc(b1-6)GalNAc
# How it was run: as §1
# [25] = biological target: Fuc(a1-2)[Gal(a1-3)]Gal(b1-4)Glc
# How it was run: as §1
# [26] = biological target: Fuc(a1-2)[Gal(a1-3)]Gal(b1-4)GlcNAc
# How it was run: as §1
# [27] = biological target: Fuc(a1-2)[Gal(a1-3)]Gal(b1-4)GlcNAc(b1-2)Man
# How it was run: as §1
# [28] = biological target: Fuc(a1-2)[Gal(a1-3)]Gal(b1-4)GlcNAc(b1-2)Man(a1-3)[Fuc(a1-2)[Gal(a1-3)]Gal(b1-4)GlcNAc(b1-2)Man(a1-6)]Man(b1-4)GlcNAc(b1-4)GlcNAc
# How it was run: as §1
# [29] = biological target: Fuc(a1-2)[Gal(a1-3)]Gal(b1-4)GlcNAc(b1-2)Man(a1-3)[Fuc(a1-2)[Gal(a1-3)]Gal(b1-4)GlcNAc(b1-2)Man(a1-6)]Man(b1-4)GlcNAc(b1-4)[Fuc(a1-6)]GlcNAc
# How it was run: as §1
# [30] = biological target: Fuc(a1-2)[Gal(a1-3)]Gal(b1-4)GlcNAc(b1-3)GalNAc
# How it was run: as §1
# [31] = biological target: Fuc(a1-2)[Gal(a1-3)]Gal(b1-4)GlcNAc(b1-3)[Fuc(a1-2)[Gal(a1-3)]Gal(b1-4)GlcNAc(b1-6)]GalNAc
# How it was run: as §1
# [32] = biological target: Fuc(a1-2)[Gal(a1-3)]Gal(b1-4)GlcNAc(b1-6)GalNAc
# How it was run: as §1
# [33] = biological target: Fuc(a1-2)[Gal(a1-3)]Gal(b1-4)[Fuc(a1-3)]Glc
# How it was run: as §1
# [34] = biological target: Fuc(a1-2)[Gal(a1-3)]Gal(b1-4)[Fuc(a1-3)]GlcNAc
# How it was run: as §1
# [35] = biological target: Fuc(a1-2)[Gal(a1-3)]Gal(b1-4)[Fuc(a1-3)]GlcNAc(b1-3)GalNAc
# How it was run: as §1
# [36] = biological target: Fuc(a1-2)[Gal(a1-4)]Gal(b1-4)GalNAc
# How it was run: as §1
# [37] = biological target: Fuc(a1-2)[Gal(a1-4)]Gal(b1-4)GlcNAc
# How it was run: as §1
# [38] = biological target: Fuc(a1-2)[GalNAc(a1-3)]Gal
# How it was run: as §1
binder,measurement,setting,value
"OVGAL11 (Ovis aries), AAF64320 (protein) MDSLPNPYLQSVSLTVCYMVKIKANLLSAFGKNPELQVDFGTGTGQGGNIPFRFWYCDGMVVMNTFTDGSWQKEEKVLTDAFVPGQPFELQFLVLEKEYQVFVKNKPICQFAHRLPLQSVKMLDVRGDIVLTSVDTL",glycan array binding signal (z-score),[1],-0.111
same,glycan array binding signal (z-score),[2],-0.09
same,glycan array binding signal (z-score),[3],-0.189
same,glycan array binding signal (z-score),[4],-0.12
same,glycan array binding signal (z-score),[5],-0.087
same,glycan array binding signal (z-score),[6],-0.091
same,glycan array binding signal (z-score),[7],0.149
same,glycan array binding signal (z-score),[8],0.184
same,glycan array binding signal (z-score),[9],-0.063
same,glycan array binding signal (z-score),[10],-0.052
same,glycan array binding signal (z-score),[11],-0.066
same,glycan array binding signal (z-score),[12],-0.107
same,glycan array binding signal (z-score),[13],-0.069
same,glycan array binding signal (z-score),[14],-0.115
same,glycan array binding signal (z-score),[15],-0.105
same,glycan array binding signal (z-score),[16],-0.076
same,glycan array binding signal (z-score),[17],-0.111
same,glycan array binding signal (z-score),[18],-0.092
same,glycan array binding signal (z-score),[19],-0.05
same,glycan array binding signal (z-score),[20],-0.153
same,glycan array binding signal (z-score),[21],-0.117
same,glycan array binding signal (z-score),[22],-0.03
same,glycan array binding signal (z-score),[23],-0.116
same,glycan array binding signal (z-score),[24],-0.09
same,glycan array binding signal (z-score),[25],-0.199
same,glycan array binding signal (z-score),[26],0.2
same,glycan array binding signal (z-score),[27],-0.09
same,glycan array binding signal (z-score),[28],-0.025
same,glycan array binding signal (z-score),[29],-0.071
same,glycan array binding signal (z-score),[30],-0.115
same,glycan array binding signal (z-score),[31],-0.065
same,glycan array binding signal (z-score),[32],-0.075
same,glycan array binding signal (z-score),[33],-0.103
same,glycan array binding signal (z-score),[34],-0.101
same,glycan array binding signal (z-score),[35],-0.064
same,glycan array binding signal (z-score),[36],-0.089
same,glycan array binding signal (z-score),[37],-0.027
same,glycan array binding signal (z-score),[38],-0.03
